According to the supplement of paper PMC8728848:
The list shows a part of the results.

Assays:
Assay in all cases: glycan array binding signal (z-score within array); higher = stronger binding
Settings in all cases: glycan notation: IUPAC condensed, linker removed
[1] = molecular target: Gal(a1-3)Gal(b1-4)GlcNAc
Procedure, shortened: (§1)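 Glycan array binding is given as a within-array Z-score, which can be read as non-binding when negative. The arrays, 3228 of them, came from the Consortium for Functional Glycomics database and were retained only where the protein sequence was available. Z-scores were averaged across arrays of the same protein sequence at different concentrations or buffers and across linkers.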

[2] = molecular target: Gal(a1-3)Gal(b1-4)GlcNAc(b1-2)Man
Procedure, shortened: as §1

[3] = molecular target: Gal(a1-3)Gal(b1-4)GlcNAc(b1-2)Man(a1-3)[Gal(a1-3)Gal(b1-4)GlcNAc(b1-2)Man(a1-6)]Man(b1-4)GlcNAc(b1-4)GlcNAc
Procedure, shortened: as §1

[4] = molecular target: Gal(a1-3)Gal(b1-4)GlcNAc(b1-3)GalNAc
Procedure, shortened: as §1

[5] = molecular target: Gal(a1-3)Gal(b1-4)GlcNAc(b1-6)GalNAc
Procedure, shortened: as §1

[6] = molecular target: Gal(a1-3)Gal(b1-4)[Fuc(a1-3)]GlcNAc
Procedure, shortened: as §1

[7] = molecular target: Gal(a1-3)Gal(b1-4)[Fuc(a1-3)]GlcNAc(b1-2)Man(a1-3)[Gal(a1-3)Gal(b1-4)[Fuc(a1-3)]GlcNAc(b1-2)Man(a1-6)]Man(b1-4)GlcNAc(b1-4)GlcNAc
Procedure, shortened: as §1

[8] = molecular target: Gal(a1-3)GalNAc
Procedure, shortened: as §1

[9] = molecular target: Gal(a1-3)[Gal(a1-4)]Gal(b1-4)GlcNAc
Procedure, shortened: as §1

[10] = molecular target: Gal(a1-4)Gal(b1-3)GlcNAc(b1-2)Man(a1-3)[Gal(a1-4)Gal(b1-3)GlcNAc(b1-2)Man(a1-6)]Man(b1-4)GlcNAc(b1-4)GlcNAc
Procedure, shortened: as §1

[11] = molecular target: Gal(a1-4)Gal(b1-4)Glc
Procedure, shortened: as §1

[12] = molecular target: Gal(a1-4)Gal(b1-4)GlcNAc
Procedure, shortened: as §1

[13] = molecular target: Gal(a1-4)Gal(b1-4)GlcNAc(b1-2)Man(a1-3)[Gal(a1-4)Gal(b1-4)GlcNAc(b1-2)Man(a1-6)]Man(b1-4)GlcNAc(b1-4)GlcNAc
Procedure, shortened: as §1

[14] = molecular target: Gal(a1-4)Gal(b1-4)GlcNAc(b1-3)Gal(b1-4)Glc
Procedure, shortened: as §1

[15] = molecular target: Gal(a1-4)GlcNAc
Procedure, shortened: as §1

[16] = molecular target: Gal(a1-6)Glc
Procedure, shortened: as §1

[17] = molecular target: Gal(b1-2)Gal
Procedure, shortened: as §1

[18] = molecular target: Gal(b1-3)Gal
Procedure, shortened: as §1

[19] = molecular target: Gal(b1-3)Gal(b1-4)GlcNAc
Procedure, shortened: as §1

[20] = molecular target: Gal(b1-3)GalNAc
Procedure, shortened: as §1

[21] = molecular target: Gal(b1-3)GalNAc(a1-3)[Fuc(a1-2)]Gal(b1-4)Glc
Procedure, shortened: as §1

[22] = molecular target: Gal(b1-3)GalNAc(a1-3)[Fuc(a1-2)]Gal(b1-4)GlcNAc
Procedure, shortened: as §1

[23] = molecular target: Gal(b1-3)GalNAc(b1-3)Gal
Procedure, shortened: as §1

[24] = molecular target: Gal(b1-3)GalNAc(b1-3)Gal(a1-4)Gal(b1-4)Glc
Procedure, shortened: as §1

[25] = molecular target: Gal(b1-3)GalNAc(b1-4)Gal(b1-4)Glc
Procedure, shortened: as §1

[26] = molecular target: Gal(b1-3)GalNAc(b1-4)[Neu5Ac(a2-3)]Gal(b1-4)Glc
Procedure, shortened: as §1

[27] = molecular target: Gal(b1-3)GlcNAc
Procedure, shortened: as §1

[28] = molecular target: Gal(b1-3)GlcNAc(a1-3)Gal(b1-4)GlcNAc
Procedure, shortened: as §1

[29] = molecular target: Gal(b1-3)GlcNAc(a1-6)Gal(b1-4)GlcNAc
Procedure, shortened: as §1

[30] = molecular target: Gal(b1-3)GlcNAc(b1-2)Man
Procedure, shortened: as §1

[31] = molecular target: Gal(b1-3)GlcNAc(b1-2)Man(a1-3)[Gal(b1-3)GlcNAc(b1-2)Man(a1-6)]Man(b1-4)GlcNAc(b1-4)GlcNAc
Procedure, shortened: as §1

[32] = molecular target: Gal(b1-3)GlcNAc(b1-2)Man(a1-3)[Gal(b1-3)GlcNAc(b1-2)Man(a1-6)]Man(b1-4)GlcNAc(b1-4)[Fuc(a1-6)]GlcNAc
Procedure, shortened: as §1

[33] = molecular target: Gal(b1-3)GlcNAc(b1-2)Man(a1-3)[GlcNAc(b1-4)][Gal(b1-3)GlcNAc(b1-2)Man(a1-6)]Man(b1-4)GlcNAc(b1-4)GlcNAc
Procedure, shortened: as §1

[34] = molecular target: Gal(b1-3)GlcNAc(b1-2)[Gal(b1-3)GlcNAc(b1-6)]Man(a1-6)[Gal(b1-3)GlcNAc(b1-2)Man(a1-3)]Man(b1-4)GlcNAc(b1-4)GlcNAc
Procedure, shortened: as §1

[35] = molecular target: Gal(b1-3)GlcNAc(b1-3)Gal(b1-3)GlcNAc
Procedure, shortened: as §1

[36] = molecular target: Gal(b1-3)GlcNAc(b1-3)Gal(b1-4)Glc
Procedure, shortened: as §1

[37] = molecular target: Gal(b1-3)GlcNAc(b1-3)Gal(b1-4)GlcNAc
Procedure, shortened: as §1

[38] = molecular target: Gal(b1-3)GlcNAc(b1-3)Gal(b1-4)GlcNAc(b1-2)Man(a1-3)[Gal(b1-3)GlcNAc(b1-3)Gal(b1-4)GlcNAc(b1-2)Man(a1-6)]Man(b1-4)GlcNAc(b1-4)GlcNAc
Procedure, shortened: as §1

[39] = molecular target: Gal(b1-3)GlcNAc(b1-3)Gal(b1-4)GlcNAc(b1-2)[Gal(b1-3)GlcNAc(b1-3)Gal(b1-4)GlcNAc(b1-6)]Man(a1-6)[Gal(b1-3)GlcNAc(b1-3)Gal(b1-4)GlcNAc(b1-2)Man(a1-3)]Man(b1-4)GlcNAc(b1-4)[Fuc(a1-6)]GlcNAc
Procedure, shortened: as §1

[40] = molecular target: Gal(b1-3)GlcNAc(b1-3)Gal(b1-4)GlcNAc(b1-3)Gal(b1-4)GlcNAc(b1-2)[Gal(b1-3)GlcNAc(b1-3)Gal(b1-4)GlcNAc(b1-3)Gal(b1-4)GlcNAc(b1-6)]Man(a1-6)[Gal(b1-3)GlcNAc(b1-3)Gal(b1-4)GlcNAc(b1-3)Gal(b1-4)GlcNAc(b1-2)Man(a1-3)]Man(b1-4)GlcNAc(b1-4)[Fuc(a1-6)]GlcNAc
Procedure, shortened: as §1

[41] = molecular target: Gal(b1-3)GlcNAc(b1-3)Gal(b1-4)GlcNAc(b1-6)[Gal(b1-3)GlcNAc(b1-3)]Gal(b1-4)Glc
Procedure, shortened: as §1

[42] = molecular target: Gal(b1-3)GlcNAc(b1-3)Gal(b1-4)[Fuc(a1-3)]GlcNAc
Procedure, shortened: as §1

[43] = molecular target: Gal(b1-3)GlcNAc(b1-3)Gal(b1-4)[Fuc(a1-3)]GlcNAc(b1-6)[Gal(b1-3)GlcNAc(b1-3)]Gal(b1-4)Glc
Procedure, shortened: as §1

[44] = molecular target: Gal(b1-3)GlcNAc(b1-3)GalNAc
Procedure, shortened: as §1

[45] = molecular target: Gal(b1-3)GlcNAc(b1-6)Gal(b1-4)GlcNAc
Procedure, shortened: as §1

B1: VLRB.aGPA.23-GCN4-biotin (Petromyzon marinus) (protein)
chain: ACPSQCSCSGTEVNCAGKSLASVPAGIPTTTRVLYLNSNQITKLEPGVFDRLANLRELHLWGNQLVSLPPGVFDNLANLEKLWLNSNQLTSLPAGLFDRLVNLEHLGLCCMKLTELPSGAFDKLTRLKQLGLDQNQLKSIPDGAFARLPSLTHVWLHTNPWDCQCTDILYLSGWVAQHSSIVGEGWPWRHSPDSAKCSGTNTPVRAVTEASTSPSKCP
glycan array binding signal (z-score) [1]: -0.079
glycan array binding signal (z-score) [2]: -0.087
glycan array binding signal (z-score) [3]: -0.078
glycan array binding signal (z-score) [4]: -0.083
glycan array binding signal (z-score) [5]: -0.08
glycan array binding signal (z-score) [6]: -0.075
glycan array binding signal (z-score) [7]: -0.074
glycan array binding signal (z-score) [8]: -0.066
glycan array binding signal (z-score) [9]: -0.069
glycan array binding signal (z-score) [10]: -0.073
glycan array binding signal (z-score) [11]: -0.072
glycan array binding signal (z-score) [12]: -0.071
glycan array binding signal (z-score) [13]: -0.07
glycan array binding signal (z-score) [14]: -0.08
glycan array binding signal (z-score) [15]: -0.069
glycan array binding signal (z-score) [16]: -0.08
glycan array binding signal (z-score) [17]: 3.68
glycan array binding signal (z-score) [18]: -0.028
glycan array binding signal (z-score) [19]: 0.046
glycan array binding signal (z-score) [20]: 0.232
glycan array binding signal (z-score) [21]: -0.079
glycan array binding signal (z-score) [22]: -0.083
glycan array binding signal (z-score) [23]: -0.045
glycan array binding signal (z-score) [24]: -0.066
glycan array binding signal (z-score) [25]: 0.519
glycan array binding signal (z-score) [26]: -0.078
glycan array binding signal (z-score) [27]: -0.05
glycan array binding signal (z-score) [28]: -0.084
glycan array binding signal (z-score) [29]: -0.082
glycan array binding signal (z-score) [30]: -0.072
glycan array binding signal (z-score) [31]: -0.076
glycan array binding signal (z-score) [32]: -0.082
glycan array binding signal (z-score) [33]: -0.072
glycan array binding signal (z-score) [34]: -0.081
glycan array binding signal (z-score) [35]: -0.077
glycan array binding signal (z-score) [36]: -0.089
glycan array binding signal (z-score) [37]: -0.086
glycan array binding signal (z-score) [38]: -0.064
glycan array binding signal (z-score) [39]: -0.062
glycan array binding signal (z-score) [40]: -0.064
glycan array binding signal (z-score) [41]: -0.08
glycan array binding signal (z-score) [42]: -0.078
glycan array binding signal (z-score) [43]: -0.081
glycan array binding signal (z-score) [44]: -0.083
glycan array binding signal (z-score) [45]: -0.077
